From the supplement of paper PMC12217912 come the findings set out here.

First the molecules themselves.
B1: TEV protease; numbered along this chain (parent)
chain: MGESLFKGPRDYNPISSSICHLTNESDGHTTSLYGIGFGPFIITNKHLFRRNNGTLVVQSLHGVFKVKDTTTLQQHLVDGRDMIIIRMPKDFPPFPQKLKFREPQREERICLVTTNFQTKSMSSMVSDTSCTFPSGDGIFWKHWIQTKDGQCGSPLVSTRDGFIVGIHSASNFTNTNNYFTSVPKNFMELLTNQEAQQWVSGWRLNADSVLWGGHKVFMVKPEEPFQPVKEATQL

The test covers variants of B1. In words: raw area under fraction-flipped curve 0-4 h after induction (AUC4h, not background-subtracted), DNA-recorder readout of cleavage of the substrate (dimensionless); higher = more cleavage of the substrate by the protease variant. As to conditions: temperature: 34 °C; time window: 0-4 h after rhamnose induction. The method, then:
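In vivo DNA recorder in E. coli TOP10(DE3) ΔrhaA at 34 °C. Each TEVp single-site mutant (parent TEVp 0) is paired with a single-site variant of the 7-mer TEVs (canonical ENLYFQ|S). The substrate sits between flexible linkers in a Bxb1-sfGFP-TEVs-SsrA fusion, so cleavage stabilises Bxb1 and speeds flipping of a recombination array, read by NGS. The value is the raw area under the fraction-flipped curve over 0-4 h after rhamnose induction (AUC4h), with ≥20 reads per time point. It is not background-subtracted; inactive controls average about 0.047.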

The list shows a part of the results. Sequences were assembled here from the parent chain. Values near 0.05 are background.
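Further: Bxb1 expression induced with 0.2% (w/v) L-rhamnose at OD600 near 0.5, cultures sampled hourly, flipped fraction per protease–substrate barcode pair counted by paired-end Illumina sequencing.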

Take MGESLFKGPRDYNPISSSICHLTNESDGHTTSLYGIGFGPFIITNKHLFRRNNGTLVVQSLHGVFKVKDTTTLQQHLVDGRDMFIIRMPKDFPPFPQKLKFREPQREERICLVTTNFQTKSMSSMVSDTSCTFPSGDGIFWKHWIQTKDGQCGSPLVSTRDGFIVGIHSASNFTNTNNYFTSVPKNFMELLTNQEAQQWVSGWRLNADSVLWGGHKVFMVKPEEPFQPVKEATQL [I84F]: the “area with substrate ENLYAQS” value came out at 0.0476, the “area with substrate ENLYDQS” value stood at 0.0558, the “area with substrate ENLYGQS” value stood at 0.0638 and the “area with substrate ENLYKQS” value came out at 0.0518. The “area with substrate ENLYMQS” value is 0.0569, the “area with substrate ENLYNQS” value is 0.0552, the “area with substrate ENLYPQS” value was 0.0614 and the “area with substrate ENLYQQS” value was determined as 0.0615. The “area with substrate ENLYRQS” value came to 0.035, the “area with substrate ENLYSQS” value is 0.0515, the “area with substrate ENLYVQS” value came out at 0.064 and the “area with substrate ENLYWQS” value was 0.0542.
As for MGESLFKGPRDYNPISSSICHLTNESDGHTTSLYGIGFGPFIITNKHLFRRNNGTLVVQSLHGVFKVKDTTTLQQHLVDGRDMIIIRMPKFFPPFPQKLKFREPQREERICLVTTNFQTKSMSSMVSDTSCTFPSGDGIFWKHWIQTKDGQCGSPLVSTRDGFIVGIHSASNFTNTNNYFTSVPKNFMELLTNQEAQQWVSGWRLNADSVLWGGHKVFMVKPEEPFQPVKEATQL [D91F], the “area with substrate ENLYAQS” value was 0.0693, the “area with substrate ENLYCQS” value came out at 0.0801, the “area with substrate ENLYDQS” value was determined as 0.0672 and the “area with substrate ENLYEQS” value was 0.0687. The “area with substrate ENLYGQS” value was determined as 0.0576, the “area with substrate ENLYHQS” value is 0.0675, the “area with substrate ENLYIQS” value worked out at 0.106 and the “area with substrate ENLYKQS” value amounted to 0.048. For the same variant, the “area with substrate ENLYMQS” value came to 0.0866, the “area with substrate ENLYNQS” value was 0.0728, the “area with substrate ENLYPQS” value was 0.0609 and the “area with substrate ENLYQQS” value stood at 0.0694. The “area with substrate ENLYSQS” value is 0.0502, the “area with substrate ENLYWQS” value came to 0.0522 and the “area with substrate ENLYYQS” value is 0.0682.
For MGESLFKGPRDYNPISSSICHLTNESDGHTTSLYGIGFGPFIITNKHLFRRNNGTLVVQSLHGVFKVKDTTTLQQHLVAGRDMIIIRMPKDFPPFPQKLKFREPQREERICLVTTNFQTKSMSSMVSDTSCTFPSGDGIFWKHWIQTKDGQCGSPLVSTRDGFIVGIHSASNFTNTNNYFTSVPKNFMELLTNQEAQQWVSGWRLNADSVLWGGHKVFMVKPEEPFQPVKEATQL [D79A], the “area with substrate ENLYAQS” value turned out to be 0.0698, the “area with substrate ENLYEQS” value is 0.0644, the “area with substrate ENLYGQS” value amounted to 0.0531 and the “area with substrate ENLYHQS” value is 0.0622. Also, the “area with substrate ENLYIQS” value stood at 0.103, the “area with substrate ENLYKQS” value worked out at 0.0734, the “area with substrate ENLYLQS” value is 0.0875 and the “area with substrate ENLYRQS” value came to 0.0534. In addition, the “area with substrate ENLYTQS” value stood at 0.0271, the “area with substrate ENLYVQS” value stood at 0.117 and the “area with substrate ENLYWQS” value worked out at 0.0796.
On to MGESLFKGPRDYNPISSSICHLTNESDGHTTSLYGIGFGPFIITNKHLFRRNNGTLVVQSLHGVFKVKDTTTLQQHLVDGRDMIIIRMPKDFPPFPQMLKFREPQREERICLVTTNFQTKSMSSMVSDTSCTFPSGDGIFWKHWIQTKDGQCGSPLVSTRDGFIVGIHSASNFTNTNNYFTSVPKNFMELLTNQEAQQWVSGWRLNADSVLWGGHKVFMVKPEEPFQPVKEATQL [K98M], for which the “area with substrate ENLYAQS” value is 0.0845, the “area with substrate ENLYDQS” value turned out to be 0.0568, the “area with substrate ENLYGQS” value is 0.0699 and the “area with substrate ENLYHQS” value came out at 0.0622. For the same variant, the “area with substrate ENLYIQS” value is 0.109, the “area with substrate ENLYKQS” value was determined as 0.0766, the “area with substrate ENLYMQS” value was found to be 0.118 and the “area with substrate ENLYPQS” value amounted to 0.072. Besides, the “area with substrate ENLYRQS” value turned out to be 0.0514 and the “area with substrate ENLYWQS” value was found to be 0.0672.
As to MGESLFKGPRDYNPISSSICHLTNESDGHTTSLYGIGFGPFIITNKHLFRRNNGTLVVQSLHGVFKVKDTTTLQQHLVDGRDMIIIRMPKDFPPFPQGLKFREPQREERICLVTTNFQTKSMSSMVSDTSCTFPSGDGIFWKHWIQTKDGQCGSPLVSTRDGFIVGIHSASNFTNTNNYFTSVPKNFMELLTNQEAQQWVSGWRLNADSVLWGGHKVFMVKPEEPFQPVKEATQL [K98G], the “area with substrate ENLYAQS” value came out at 0.0837, the “area with substrate ENLYCQS” value came out at 0.089, the “area with substrate ENLYDQS” value amounted to 0.0761 and the “area with substrate ENLYEQS” value stood at 0.0566. The “area with substrate ENLYGQS” value was 0.0632, the “area with substrate ENLYHQS” value was determined as 0.0668, the “area with substrate ENLYIQS” value was 0.136 and the “area with substrate ENLYKQS” value was 0.0531. Moreover, the “area with substrate ENLYMQS” value turned out to be 0.08, the “area with substrate ENLYNQS” value was 0.0734, the “area with substrate ENLYPQS” value worked out at 0.066 and the “area with substrate ENLYQQS” value was determined as 0.0628. The “area with substrate ENLYRQS” value amounted to 0.0611, the “area with substrate ENLYSQS” value is 0.0748, the “area with substrate ENLYTQS” value was 0.0692 and the “area with substrate ENLYVQS” value amounted to 0.102. Besides, the “area with substrate ENLYWQS” value was determined as 0.0699 and the “area with substrate ENLYYQS” value was 0.0981.
As to MGESLFKGPRDYNPISSSICHLTNESDGHTTSLYGIGFGPFIITNKHLFRRNNGTLVVQSLHGVFKVKDTTTLQQHLVDGRDMIIIRMPKDFPPFPQTLKFREPQREERICLVTTNFQTKSMSSMVSDTSCTFPSGDGIFWKHWIQTKDGQCGSPLVSTRDGFIVGIHSASNFTNTNNYFTSVPKNFMELLTNQEAQQWVSGWRLNADSVLWGGHKVFMVKPEEPFQPVKEATQL [K98T], the “area with substrate ENLYAQS” value worked out at 0.0812, the “area with substrate ENLYCQS” value was found to be 0.0979, the “area with substrate ENLYDQS” value was 0.068 and the “area with substrate ENLYEQS” value is 0.07. Besides, the “area with substrate ENLYGQS” value is 0.0545, the “area with substrate ENLYHQS” value was 0.0698, the “area with substrate ENLYIQS” value was found to be 0.0922 and the “area with substrate ENLYKQS” value is 0.0837. Besides, the “area with substrate ENLYMQS” value came to 0.0439, the “area with substrate ENLYNQS” value was determined as 0.0701, the “area with substrate ENLYPQS” value was found to be 0.0786 and the “area with substrate ENLYQQS” value came out at 0.0561. Moreover, the “area with substrate ENLYRQS” value turned out to be 0.0588, the “area with substrate ENLYVQS” value turned out to be 0.101 and the “area with substrate ENLYWQS” value came to 0.0656.
On to MGESLFKGPRDYNPISSSICHLTNESDGHTTSLYGIGFGPFIITNKHLFRRNNGTLVVQSLHGVFKVKDTTTLQQHLVDGRDMIIWRMPKDFPPFPQKLKFREPQREERICLVTTNFQTKSMSSMVSDTSCTFPSGDGIFWKHWIQTKDGQCGSPLVSTRDGFIVGIHSASNFTNTNNYFTSVPKNFMELLTNQEAQQWVSGWRLNADSVLWGGHKVFMVKPEEPFQPVKEATQL [I86W], for which the “area with substrate ENLYAQS” value was determined as 0.0545, the “area with substrate ENLYEQS” value is 0.0597, the “area with substrate ENLYGQS” value was 0.073 and the “area with substrate ENLYHQS” value came out at 0.0675. The “area with substrate ENLYIQS” value was determined as 0.0661, the “area with substrate ENLYKQS” value came to 0.0478, the “area with substrate ENLYMQS” value is 0.0713 and the “area with substrate ENLYNQS” value came to 0.0533. Moreover, the “area with substrate ENLYQQS” value was determined as 0.0621, the “area with substrate ENLYRQS” value worked out at 0.0566, the “area with substrate ENLYSQS” value was determined as 0.0543 and the “area with substrate ENLYTQS” value amounted to 0.0641. In addition, the “area with substrate ENLYVQS” value turned out to be 0.0709, the “area with substrate ENLYWQS” value is 0.0554 and the “area with substrate ENLYYQS” value stood at 0.0634.
MGESLFKGPRDYNPISSSICHLTNESDGHTTSLYGIGFGPFIITNKHLFRRNNGTLVVQSLHGVFKVKDTTTLQQHLVDGRGMIIIRMPKDFPPFPQKLKFREPQREERICLVTTNFQTKSMSSMVSDTSCTFPSGDGIFWKHWIQTKDGQCGSPLVSTRDGFIVGIHSASNFTNTNNYFTSVPKNFMELLTNQEAQQWVSGWRLNADSVLWGGHKVFMVKPEEPFQPVKEATQL [D82G]: the “area with substrate ENLYAQS” value worked out at 0.0462, the “area with substrate ENLYCQS” value was found to be 0.0408, the “area with substrate ENLYDQS” value worked out at 0.045 and the “area with substrate ENLYEQS” value was found to be 0.048. Also, the “area with substrate ENLYHQS” value was determined as 0.0773, the “area with substrate ENLYKQS” value came out at 0.0692, the “area with substrate ENLYLQS” value turned out to be 0.0835 and the “area with substrate ENLYNQS” value is 0.0381. The “area with substrate ENLYPQS” value was found to be 0.0595, the “area with substrate ENLYQQS” value was found to be 0.0649, the “area with substrate ENLYSQS” value is 0.0545 and the “area with substrate ENLYVQS” value was found to be 0.0617.
With MGESLFKGPRDYNPISSSICHLTNESDGHTTSLYGIGFGPFIITNKHLFRRNNGTLVVQSLHGVFKVKDTTTLQQHLVDGRDGIIIRMPKDFPPFPQKLKFREPQREERICLVTTNFQTKSMSSMVSDTSCTFPSGDGIFWKHWIQTKDGQCGSPLVSTRDGFIVGIHSASNFTNTNNYFTSVPKNFMELLTNQEAQQWVSGWRLNADSVLWGGHKVFMVKPEEPFQPVKEATQL [M83G], the “area with substrate ENLYAQS” value was 0.0465, the “area with substrate ENLYEQS” value was determined as 0.0511, the “area with substrate ENLYGQS” value was 0.0427 and the “area with substrate ENLYHQS” value was found to be 0.0562. Also, the “area with substrate ENLYIQS” value was 0.0545, the “area with substrate ENLYKQS” value was determined as 0.0505, the “area with substrate ENLYNQS” value amounted to 0.0604 and the “area with substrate ENLYQQS” value worked out at 0.0668. Moreover, the “area with substrate ENLYRQS” value amounted to 0.0485, the “area with substrate ENLYTQS” value amounted to 0.0327, the “area with substrate ENLYVQS” value came out at 0.0647 and the “area with substrate ENLYWQS” value amounted to 0.0378. Moreover, the “area with substrate ENLYYQS” value was found to be 0.0618.
